Reference: PubChem BioAssay AID504332 (National Center for Advancing Translational Sciences (NCATS), 2011)
Among all 350,000 compounds or so, about 31,000 (8.9%) were called active. The inconclusive results got no clear call from the source; some entries with a clear call stand among them for comparison. Calls come from the whole dose curve; as a rule, active = well fitted inhibition curve with a large enough effect; inconclusive = small, poorly fitted or top-dose-only effect; inactive = no such curve, though single readings can be large or run the other way. Where the call is inconclusive, the potency comes from a doubtful curve fit. Some structures have more than one record in an assay (separate samples or runs), and their calls can disagree.

Target: Histone-lysine N-methyltransferase EHMT2 (Homo sapiens) (UniProt Q96KQ7)
Assay: qHTS Assay for Inhibitors of Histone Lysine Methyltransferase G9a; note: nearly all actives have a fitted effect of over 75% in size
Conditions: G9a H3K9 monomethylation, AlphaScreen, 2 h; activity, negative = inhibition: at 59 µM (top of the series) unless noted
How it was run: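 AlphaScreen read-out: biotin-H3K9 peptide (500 nM) methylation by 20 nM enzyme with 20 uM SAM, 2 h at room temperature after 15 min compound preincubation; anti-monomethyl H3K9 antibody plus donor/acceptor beads, 10 min dark.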
% is set by controls: 0 for no effect and ±100 for the full control effect; potency is the fitted concentration of half-maximal effect; tags give direction and shape of the fitted curve.

Chain of UniProt Q96KQ7 (Q96KQ7 whole entry, looked up): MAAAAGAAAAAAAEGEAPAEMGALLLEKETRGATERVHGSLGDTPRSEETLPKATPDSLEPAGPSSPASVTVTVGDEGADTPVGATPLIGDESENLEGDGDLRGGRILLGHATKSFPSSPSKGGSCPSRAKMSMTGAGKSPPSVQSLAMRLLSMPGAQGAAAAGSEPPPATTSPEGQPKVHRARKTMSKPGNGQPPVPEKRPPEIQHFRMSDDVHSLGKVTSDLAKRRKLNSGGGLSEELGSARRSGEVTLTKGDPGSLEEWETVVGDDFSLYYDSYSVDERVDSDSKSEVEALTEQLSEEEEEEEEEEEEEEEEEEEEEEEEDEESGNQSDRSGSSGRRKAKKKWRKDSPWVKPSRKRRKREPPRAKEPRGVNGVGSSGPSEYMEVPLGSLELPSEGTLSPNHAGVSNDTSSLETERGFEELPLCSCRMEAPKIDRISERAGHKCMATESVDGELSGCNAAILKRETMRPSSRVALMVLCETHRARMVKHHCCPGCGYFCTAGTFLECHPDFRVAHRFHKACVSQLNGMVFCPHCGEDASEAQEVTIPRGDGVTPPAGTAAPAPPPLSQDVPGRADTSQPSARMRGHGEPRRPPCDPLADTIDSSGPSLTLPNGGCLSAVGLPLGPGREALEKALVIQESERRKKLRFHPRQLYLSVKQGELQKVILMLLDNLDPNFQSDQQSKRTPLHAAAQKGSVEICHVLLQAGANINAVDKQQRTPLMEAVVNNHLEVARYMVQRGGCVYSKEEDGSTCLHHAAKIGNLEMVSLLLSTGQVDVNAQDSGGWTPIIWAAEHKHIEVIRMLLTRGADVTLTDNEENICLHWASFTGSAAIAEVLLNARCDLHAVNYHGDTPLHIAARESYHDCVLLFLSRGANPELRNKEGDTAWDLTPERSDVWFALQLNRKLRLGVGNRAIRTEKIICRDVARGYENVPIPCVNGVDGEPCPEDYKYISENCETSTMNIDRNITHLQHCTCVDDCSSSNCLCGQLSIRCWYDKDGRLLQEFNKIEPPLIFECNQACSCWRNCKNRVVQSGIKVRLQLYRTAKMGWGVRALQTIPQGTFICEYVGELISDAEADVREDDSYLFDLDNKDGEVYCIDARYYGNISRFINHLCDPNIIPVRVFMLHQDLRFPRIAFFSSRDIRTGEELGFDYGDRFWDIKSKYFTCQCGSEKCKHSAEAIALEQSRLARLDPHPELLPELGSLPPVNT

Row | Structure (SMILES) | activity, negative = inhibition | Potency
1 | CCC(C)NC(=O)C(Cc1ccccc1)NS(=O)(=O)c1ccc2c(c1)CCC(=O)N2 (centres undefined) | inactive: 6.45% [at 102 µM] | –
2 | CN(C)c1ccc(/C=[N+](\[O-])C(C)(C)/C=N/O)cc1 | – | inconclusive: 39.8 µM [inhibitor, single point]
3 | C/C(=N\N1CCN(C)CC1)c1ccc(Cl)c(Cl)c1 | inactive: -10.2% [at 102 µM] | –
4 | Cc1cccc(NC(=O)NC2COc3ccccc3C2)c1C (centres undefined) | inactive: 4.54% | –
5 | Cc1cc(C)n(C(=O)c2ccc(S(=O)(=O)N3CCOCC3)cc2)n1 | – | inconclusive: 50.1 µM [inhibitor, partial curve, poor fit]
6 | COC(=O)c1ccc(C2C(Oc3ccccc3C)C(=O)N2CCc2ccc(OC)c(OC)c2)cc1 (centres undefined) | – | inconclusive: 39.8 µM [inhibitor, single point]
7 | CCC(C)[C@H](N)c1nnc(SCC(=O)Nc2ccc(C)cc2C)o1 (some centres undefined) | – | inconclusive: 89.1 µM [inhibitor, single point]
8 | Cc1sc2c3ccsc3ccc2[n+]1C | – | inconclusive: 2.82 µM [inhibitor, partial curve, poor fit]
9 | O=C(c1cccs1)N1CCN(c2ccccc2)CC1 | – | inconclusive: 79.4 µM [inhibitor, partial curve, poor fit]
10 | COc1ccc(Cc2nnc(C(=O)NCCCN3CCN(c4ccccc4F)CC3)o2)cc1OC | inactive: -29.8% | –
11 | O=C(CCN1CCCCC1c1cccnc1)NCc1ccccc1 (centres undefined) | inconclusive: -65.2% [inhibitor] | –
12 | COc1ccc(C=O)cc1CSc1ncccc1C(=O)O | – | inconclusive: 79.4 µM [inhibitor, single point]
13 | CCOC(=O)c1[nH]c2ccccc2c1NC(=O)c1ccccc1OC | – | inconclusive: 17.8 µM [inhibitor, partial curve, poor fit]
14 | Cc1cc(C)nc(/N=C2\NC(=O)CC(C(=O)O)N2c2ccc(Cl)cc2)n1 (centres undefined) | – | inconclusive: 31.6 µM [inhibitor, partial curve, poor fit]
15 | O=C(NCc1ccccn1)Nc1ccc2c(c1)OCO2 | inactive: -29.7% | –
16 | Cc1cccnc1NC(=S)NC(=O)c1cccs1 | – | inconclusive: 89.1 µM [inhibitor, single point]
17 | O=c1c2ccccc2nc2n1C(CBr)CS2 (centres undefined) | – | inconclusive: 50.1 µM [inhibitor, partial curve, poor fit]
18 | CCOc1ccc(C(=O)COC(=O)c2nc3nccc(C)n3n2)cc1 | – | inconclusive: 4.47 µM [inhibitor, single point]
19 | c1ccc(-c2ccc(-c3cn4c(n3)CCC4)cc2)cc1 | – | inconclusive: 79.4 µM [inhibitor, single point]
20 | CCc1ccc(CNC(=O)C(CC)n2nc(C)c3c(C)n(-c4ccccc4)nc3c2=O)cc1 (centres undefined) | inactive: 9.07% | –
21 | COc1ccc(N=C2SCC(c3ccc(C)cc3)=NN2CCO)cc1 | – | active: 50.1 µM
22 | COc1ccccc1/C=C/C(=O)OCCN1C(=O)c2ccccc2C1=O | inactive: 29.7% [at 102 µM] | –
23 | CCOC(=O)C1(CC)NC(c2ccc(OC)c(OC)c2)C2C(=O)N(c3cccc(C(C)=O)c3)C(=O)C21 (centres undefined) | inactive: -14.9% [at 102 µM] | –

Row | Structure (SMILES) | activity, negative = inhibition | Potency
24 | Cc1ccc2c(c1)NC(=O)C(CC(=O)NCc1cccnc1)O2 (centres undefined) | – | active: 31.6 µM
25 | CCN1CCCC1CNC(=O)Cn1ncc2c(=O)oc3ccc(C)cc3c21 (centres undefined) | – | inconclusive: 0.794 µM [inhibitor, partial curve, poor fit]
26 | CCOC(=O)N1CCN(c2nc3c(c(=O)[nH]c(=O)n3C)n2Cc2ccccc2Cl)CC1 | inactive: -33.1% [at 102 µM] | –
27 | O=S(=O)(c1ccc2ccccc2c1)N1CCN(Cc2ccccn2)CC1 | – | inconclusive: 8.91 µM [inhibitor, full curve, poor fit]
28 | Cn1c(Cc2csc(N)n2)nnc1SC/C=C/c1ccccc1 | inactive: 12.8% [at 12.7 µM] | –
29 | COCCn1c(SCC(=O)NC2CC2)nc2ccccc21 | inactive: -3.5% [at 2.33 µM] | –
30 | Cc1cc(NC(=O)CSc2nnc(-c3ccncc3)n2N)ccc1Br | – | active: 35.5 µM
31 | Cc1ccc(/C(O)=C2/C(=O)C(=O)N(Cc3cccnc3)C2c2ccccn2)cc1 (centres undefined) | inconclusive: -67.6% [inhibitor] | –
32 | CC(=O)c1c(C)oc(C)c1CSCc1ccc(C(=O)O)o1 | – | inconclusive: 28.2 µM [inhibitor, single point]
33 | COc1cc(CNCCc2ccccc2)cc(Br)c1OCC(=O)Nc1ccccc1C | – | inconclusive: 50.1 µM [inhibitor, partial curve]
34 | COc1ccccc1-n1c(SCC(=O)O)nc2c(sc(=S)n2-c2ccc(C)c(C)c2)c1=O | – | inconclusive: 79.4 µM [inhibitor, single point]
35 | CCCN1CCCc2cc(CN)ccc21 | – | active: 8.91 µM
36 | COc1ccc(C2c3ccc4ccccc4c3Oc3ncn(CCCO)c(=N)c32)cc1OC (centres undefined) | – | inconclusive: 56.2 µM [inhibitor, partial curve, poor fit]
37 | CCOC(=O)C1CCN(Cc2ccccc2C)CC1 | – | inconclusive: 2.24 µM [inhibitor, partial curve, poor fit]
38 | COc1ccc(N2CCN(C(=O)c3ccc4c(c3)N(Cc3cc(C)ccc3C)C(=O)c3ccccc3S4=O)CC2)cc1 (centres undefined) | – | inconclusive: 5.62 µM [inhibitor, partial curve, poor fit]
39 | O=S(=O)(NC(=S)c1ccccc1)c1ccc(Cl)cc1 | – | inconclusive: 22.4 µM [inhibitor, single point]
40 | Cc1cccn2c(=O)c(/C=C(\C#N)C(N)=O)c(N3CCN(c4ccccc4)CC3)nc12 | – | inconclusive: 79.4 µM [inhibitor, single point]
41 | CCOc1cc(C(c2c(C)[nH][nH]c2=O)c2c(C)[nH][nH]c2=O)cc(Cl)c1O | – | inconclusive: 79.4 µM [inhibitor, single point]
42 | CCCC(O)(c1ccc(Cl)cc1)C(CN1CCOCC1)c1ccccc1 (centres undefined) | – | inconclusive: 89.1 µM [inhibitor, single point]
43 | CN1CCC(=O)N(CCOc2ccccc2)CC1 | – | active: 28.2 µM
44 | CCn1cc(C2=NOC(C(=O)Nc3c(C)nn(Cc4ccc(F)cc4)c3C)C2)c(C)n1 (centres undefined) | – | inconclusive: 89.1 µM [inhibitor, single point]
45 | CCc1ccccc1NC(=O)/C(=C/c1ccco1)c1ccccc1 | – | active: 39.8 µM
46 | CC(OC(=O)CNC(=O)c1ccco1)C(=O)Nc1ccc(Cl)cn1 (centres undefined) | inactive: -31.5% [at 102 µM] | –

Row | Structure (SMILES) | activity, negative = inhibition | Potency
47 | Cc1ccc(-c2cc(C(=O)N/N=C/c3ccc([N+](=O)[O-])o3)c3ccccc3n2)o1 | – | active: 44.7 µM
48 | Cc1nc2nc(CCNS(=O)(=O)c3ccc(Cl)cc3)cn2nc1C | inactive: 8.27% | –
49 | CC(C)CC(C(=O)Nc1oc(-c2ccccc2)c(-c2ccccc2)c1C#N)N1C(=O)c2ccccc2C1=O (centres undefined) | – | inconclusive: 28.2 µM [inhibitor, single point]
50 | CN(C(=O)c1ccco1)c1nnc(-c2ccc(F)cc2)s1 | – | inconclusive: 89.1 µM [inhibitor, single point]
51 | Cc1ccc(NC(=O)c2ccc(COc3ccccc3[N+](=O)[O-])o2)nc1 | inconclusive: -83.7% [inhibitor] [at 12.7 µM] | –
52 | O=C(N/N=C/c1cc(Br)cc(Br)c1O)c1ccncc1 | – | active: 50.1 µM
53 | OCCN(CCO)c1ccc(C(c2ccc(Cl)cc2)c2ccc(N(CCO)CCO)cc2Cl)c(Cl)c1 | – | inconclusive: 39.8 µM [inhibitor, single point]
54 | Cc1ccc(NC(=O)CCNC(=O)c2ccc(Br)cc2)cc1S(=O)(=O)N1CCOCC1 | – | inconclusive: 56.2 µM [inhibitor, partial curve, poor fit]
55 | COc1ccc(OC)c(S(=O)(=O)Nc2ccc3oc(C)c(C(C)=O)c3c2)c1 | – | inconclusive: 7.94 µM [inhibitor, partial curve, poor fit]
56 | O=C(N=Nc1c(O)[nH]c2ccc([N+](=O)[O-])cc12)c1ccccc1Cl | – | inconclusive: 50.1 µM [inhibitor, partial curve]
57 | CC(Oc1ccccc1)C(=O)Nc1nnc(S(=O)(=O)N2CCCCCC2)s1 (centres undefined) | – | active: 2.82 µM
58 | CCCNC(=O)/C=C/C(=O)O | – | inconclusive: 89.1 µM [inhibitor, single point]
59 | COc1ccc(C(=O)Nc2nnc(S(=O)(=O)N3CCN(c4ccc(C)cc4)CC3)s2)cc1 | inactive: -7.14% | –
60 | COC(=O)[C@H](Cc1ccccc1)NC(=O)C1CCN(C(=O)[C@H](C)NS(=O)(=O)c2ccc(C)cc2)CC1 | – | inconclusive: 70.8 µM [inhibitor, single point]
61 | O=C(CSc1nnc(-c2ccncc2)o1)Nc1cc(F)ccc1F | – | inconclusive: 39.8 µM [inhibitor, single point]
62 | COC(=O)c1ccc2nc(NC(=O)CCS(=O)(=O)c3ccccc3)sc2c1 | – | inconclusive: 89.1 µM [inhibitor, single point]
63 | CC(Sc1nnc(Nc2ccccc2)s1)C(=O)NC1CCCc2ccccc21 (centres undefined) | – | inconclusive: 25.1 µM [inhibitor, single point]
64 | COc1ccc(NC(=O)CSc2ccc(-c3cccs3)nn2)cc1 | – | active: 10 µM
65 | CCOC(=O)Cc1cnc(NC(=O)CSc2nc(C)cc(C)n2)s1 | – | inconclusive: 89.1 µM [inhibitor, partial curve, poor fit]
66 | Cc1ccc(OCC(=O)OCC(=O)N2c3ccccc3CC2C)cc1C (centres undefined) | inactive: 27.2% [at 12.7 µM] | –
67 | Cn1c(=O)oc2cc(S(=O)(=O)N3CCN(Cc4ccc5c(c4)OCO5)CC3)ccc21 | inactive: 29.5% [at 0.501 µM] | –
68 | CCn1cnnc1SCC(=O)c1c(N)n(C2CC2)c(=O)[nH]c1=O | – | inconclusive: 1.78 µM [inhibitor, partial curve, poor fit]
69 | O=C(Nc1ccc2c(c1)CCC2)c1cnc(Cl)c(Cl)c1 | inactive: -3.18% [at 102 µM] | –
